# Assay results: publication PMC4336329 (PLoS ONE, 2015)
# The whole screen tested about 310,000 compounds, of which about 14,000 (4.5%) showed an effect of 50% or more. Effects have a minus sign here. This is one part of the list.
# Molecular target: human ether-à-go-go-related gene (hERG) potassium channel (human, UniProt Q12809)
# Experiment: primary screen, population patch clamp on CHO cells stably expressing hERG
# 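Note: peak tail current of the secondary pulse compared with the same well before compound.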
# Chain of human ether-à-go-go-related gene (hERG) potassium channel (Q12809 whole entry, looked up): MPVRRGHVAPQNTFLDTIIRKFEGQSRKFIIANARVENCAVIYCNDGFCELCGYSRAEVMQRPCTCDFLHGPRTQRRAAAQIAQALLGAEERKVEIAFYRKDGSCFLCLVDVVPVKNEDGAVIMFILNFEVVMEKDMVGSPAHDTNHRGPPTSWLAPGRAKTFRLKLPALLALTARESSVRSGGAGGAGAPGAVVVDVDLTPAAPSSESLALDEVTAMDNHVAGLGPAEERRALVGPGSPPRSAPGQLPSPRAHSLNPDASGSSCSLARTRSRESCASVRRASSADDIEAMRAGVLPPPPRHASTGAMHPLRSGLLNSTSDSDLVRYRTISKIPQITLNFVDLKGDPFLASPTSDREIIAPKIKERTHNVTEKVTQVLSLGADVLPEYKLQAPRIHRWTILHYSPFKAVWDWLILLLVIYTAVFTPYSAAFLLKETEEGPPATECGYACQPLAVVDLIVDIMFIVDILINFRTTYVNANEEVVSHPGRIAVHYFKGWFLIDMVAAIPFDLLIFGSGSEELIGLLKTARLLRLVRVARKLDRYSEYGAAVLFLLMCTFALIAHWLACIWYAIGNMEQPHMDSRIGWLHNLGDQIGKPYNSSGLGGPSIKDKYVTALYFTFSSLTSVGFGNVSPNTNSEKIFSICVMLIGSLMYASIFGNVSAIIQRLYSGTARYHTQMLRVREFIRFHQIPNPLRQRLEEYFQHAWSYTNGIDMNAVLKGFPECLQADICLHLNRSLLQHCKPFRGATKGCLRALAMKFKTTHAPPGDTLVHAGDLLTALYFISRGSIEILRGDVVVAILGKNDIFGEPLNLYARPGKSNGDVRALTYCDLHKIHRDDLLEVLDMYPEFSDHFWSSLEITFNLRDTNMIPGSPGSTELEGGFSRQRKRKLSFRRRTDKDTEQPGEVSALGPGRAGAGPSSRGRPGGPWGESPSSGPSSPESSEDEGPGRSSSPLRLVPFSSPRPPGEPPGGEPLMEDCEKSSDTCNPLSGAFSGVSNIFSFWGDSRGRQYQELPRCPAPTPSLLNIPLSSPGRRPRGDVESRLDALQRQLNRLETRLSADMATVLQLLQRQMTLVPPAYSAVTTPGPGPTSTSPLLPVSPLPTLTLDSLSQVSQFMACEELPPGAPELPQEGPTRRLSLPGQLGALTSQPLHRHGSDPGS
row,Compound,"hERG current change (%, negative = inhibition) at 10uM"
1,N#Cc1c(NC(=O)/C=C/c2ccco2)sc2c1CCCC2,-2.98%
2,CN(C(=S)NC(=O)c1ccc(F)cc1)C1CCCCC1,13.5%
3,COc1ccccc1C(C#N)c1cccc(Cl)n1 (stereo not drawn),0.219%
4,Cc1nn(Cc2ccccc2Cl)c(C)c1NC(=O)c1ccn(C)n1,16.1%
5,C=CCN(C(=O)CSc1nc2[nH]ncc2c(=O)n1-c1ccccc1OC)c1ccccc1,-15%
6,CCOc1cc(C)nc(N2CCC(C(=O)Nc3ccccc3OCC)CC2)n1,5.62%
7,CCCCCCC(=O)Oc1ccc(N2C(=O)CCC2=O)cc1,14%
8,CCCOc1ccc(C(=O)Nc2ccc3c(c2)OCCO3)cc1,11.6%
9,Cc1cc(C)c2sc(N(CCCN(C)C)C(=O)CN3C(=O)c4ccccc4C3=O)nc2c1.Cl,4.3%
10,O=C(COc1ccccc1[N+](=O)[O-])Nc1ccc2c(c1)CCC2,6.68%
11,COc1c(O)ccc(/C=N/NC(=O)c2ccc3c(c2)OCCO3)c1[N+](=O)[O-],7.36%
12,Nc1ccc(-n2ccnc2)cc1,2.4%
13,CCCC(=O)NC(=S)Nc1ccc(S(=O)(=O)N2CCc3ccccc32)cc1,16.9%
14,Cc1cccc(C(=O)Nc2cccc(C(=O)N/N=C/c3cccc(C)n3)c2)c1,14.3%
15,CCOc1ccc(N2C(=O)CC(SC(=NC)Nc3ccc4c(c3)OCO4)C2=O)cc1 (stereo not drawn),13.5%
16,Brc1ccc(-c2nnc(SCCC3OCCCO3)o2)cc1,-27.2%
17,O=C(Nc1ccc(Br)cc1F)C1CCN(c2nnc(-n3cccc3)s2)CC1,-0.00282%
18,CC1(C)CC(=O)C(C2C3=C(CC(C)(C)CC3=O)Oc3ccc4ccccc4c32)C(=O)C1 (stereo not drawn),2.08%
19,Cc1c(C(=O)NCc2c(F)cc(F)cc2F)oc2ccc(S(=O)(=O)N3CCOCC3)cc12,-13.1%
20,COc1cc(CCC(=O)Nc2ccc(S(=O)(=O)N3CCCC3)cc2)cc(OC)c1OC,-24.2%
21,Cc1ccccc1NC(=O)C(=O)c1cn(C)c2ccccc12,6.34%
22,CCCN(CC(=O)Nc1ccccc1C)C(=O)c1nn(CC)c(=O)c2ccccc12,-15.3%

row,Compound,"hERG current change (%, negative = inhibition) at 10uM"
1,CCO[C@H]1OC(C(=O)N2CCN(C)CC2)=C[C@@H](c2ccc(Br)cc2)[C@@H]1CCCO,-22.4%
2,CN(C)S(=O)(=O)c1ccc(NC(=O)CCCNC(=O)c2ccc(Cl)cc2)cc1,5.54%
3,COc1ccc(C2NC(=O)C(C#N)=C(S)N2c2cccc(C)c2)cc1OC (stereo not drawn),46.2%
4,COCCNC(=O)C1(C)Oc2ccccc2NC1=O (stereo not drawn),12.4%
5,O=C(CSc1nnc(NC(=O)c2ccccc2F)s1)NCc1ccc(F)cc1,8.65%
6,Cc1ccccc1-c1n[nH]c(=S)o1,16.9%
7,Cn1c(=O)n(Cc2ccc(Cl)cc2)c2ccccc21,-8.74%
8,COc1cc(OC)cc(C(=O)NC(C(=O)NNC(=O)c2ccc(C)cc2)C(C)C)c1 (stereo not drawn),-4.26%
9,CCOc1cc(/C=N/NC(=O)c2ccccn2)ccc1OC(=O)c1ccc(F)cc1,-21.2%
10,O=C(c1cc(-c2ccccc2)nn1CC1CC(c2cccnc2)=NO1)N1CCOCC1 (stereo not drawn),-4.25%
11,CCC(C)n1c(SCC(=O)NC2CCCC2)nc2ccccc2c1=O (stereo not drawn),-16.5%
12,CC(C)C[C@H](NC(=O)N1CCN(c2ccccc2)CC1)C(=O)O,-8.51%
13,C(=N\n1c2ccccc2c2ccccc21)/c1ccccc1,11.6%
14,CC(C)(C)NC(=O)C(OC(=O)c1cccs1)c1ccc(F)cc1 (stereo not drawn),47.2%
15,O=C(Nc1cccc(Cl)c1N1CCOCC1)c1cc([N+](=O)[O-])ccc1N1CCOCC1,-21.1%
16,O=C(CCn1cccc1)Nc1ccccc1F,5.37%
17,CCCCNC(=O)CSc1nnc(-c2ccc(S(=O)(=O)N3CCCC3)cc2)n1C,-2.75%
18,NS(=O)(=O)c1cccc(NC(=S)NCc2ccc3c(c2)OCO3)c1,17.9%
19,CCC(=O)N1c2ccc(S(=O)(=O)NCCc3ccccc3)cc2CC1C (stereo not drawn),-21.5%
20,CCc1nnc(NC(=O)CCC(=O)Nc2ccccc2)s1,26%
21,COc1ccc(COC(=O)Nc2c(SC)nsc2SC)cc1,11.5%
22,O=C1CSc2ccc(S(=O)(=O)N3CCN(c4ccccc4F)CC3)cc2N1,-0.236%

row,Compound,"hERG current change (%, negative = inhibition) at 10uM"
1,CC(C)N1CCC(=NNc2ccc(S(=O)(=O)N3CCOCC3)cc2[N+](=O)[O-])CC1,-6.15%
2,CSCC[C@H](NC(=O)COc1cc2c(c3oc(=O)c(C)c(C)c13)CCC(C)(C)O2)C(=O)O,0.569%
3,c1ccc(-c2ccccc2OCCn2cncn2)cc1,-1.04%
4,Cc1cc(C(F)(F)F)nn1Cc1n[nH]c(=S)n1-c1cccc(Cl)c1,-10.1%
5,O=C(Cc1ccc(NC2=NC3CS(=O)(=O)CC3S2)cc1)Nc1ccc(F)cc1 (stereo not drawn),2.9%
6,O=C(O)c1[nH]nc2c1COc1ccccc1-2,7.78%
7,O=C(c1ccc(COc2c(F)c(F)cc(F)c2F)o1)N1CCN(c2ccccc2)CC1,2.5%
8,Cc1ccc(Nc2nc(N)c([N+](=O)[O-])c(NCCO)n2)cc1,-24.7%
9,N[C@@H](Cc1ccccc1)C(=O)N1CCC(C(=O)N[C@@H](Cc2c[nH]c3ccccc23)C(=O)O)CC1,21.2%
10,COc1cc(NS(=O)(=O)c2ccc(NC(=O)/C(=C\c3ccccc3OC)NC(=O)c3ccccc3)cc2)nc(OC)n1,26.5%
11,CCOc1ccc2ccccc2c1/C=N\NC(=O)OC,12.7%
12,COc1cc(-c2nc3ccccn3c2/N=C/c2ccccc2)ccc1O,-11.6%
13,CCN(CC)CCCn1c2c(c(SCC(=O)Nc3ccc4c(c3)OCO4)nc1=O)CCC2,-44.6%
14,Cc1nn(-c2ncc(C(F)(F)F)cc2Cl)c(=O)n1-c1cccc(Cl)c1,12.3%
15,COc1nc(Oc2ccc(C(=O)O)cc2)nc(Oc2ccc(C(=O)O)cc2)n1,5.5%
16,COc1ccc(C2=Nc3ccccc3OC2)cc1,-2.07%
17,Cc1ccc(S(=O)(=O)NCCC(=O)NCCCSc2ccccc2)cc1,-31.6%
18,COc1ccc(-c2cnc(SCC(=O)Nc3nc(C(C)(C)C)cs3)n2Cc2ccco2)cc1,-4.33%
19,O=C(NCc1ccccc1)c1ccc(NC(=O)c2ccco2)cc1,5.81%
20,CCN(Cc1ccccc1)c1ccc(/C=N/NC(=S)NC(C)C)cc1,2.08%
21,CCN1CCN(C(=O)c2ccc3c(c2)c(C)c(C)n3Cc2ccccc2)CC1,-25.8%
22,Cc1ccc(C(=O)NCCNC(=O)c2ccccc2)cc1,8.24%

row,Compound,"hERG current change (%, negative = inhibition) at 10uM"
1,O=C(N/N=C/c1cccn1-c1ccc(O)cc1)c1cccc2ccccc12,1.35%
2,CC1Cn2c(nnc2-c2ccccc2O)S1 (stereo not drawn),-0.158%
3,c1ccc(-n2c(Cc3cccnc3)nc3cnccc32)cc1,-50.5%
4,NS(=O)(=O)c1cccc(NC(=O)COC(=O)Cc2n[nH]c(=O)c3ccccc23)c1,3.87%
5,CCOC(=O)C1CCCN(C(=S)Nc2ccc(OC)cc2)C1 (stereo not drawn),5.25%
6,Cn1c(=O)n(Cc2ccc(F)cc2)c(=O)c2c1nc1n2CCN1Cc1ccco1,-55.4%
7,Cc1cnc(Sc2ncccc2[N+](=O)[O-])nc1,-2.92%
8,CC(C)(C)OC(=O)[C@H](Cc1ccccc1)NC(=O)c1nc[nH]c1C(=O)N[C@@H](Cc1ccccc1)C(=O)OC(C)(C)C,9.91%
9,CCc1ccccc1N1C(=O)NC(=O)/C(=C\c2cc(C)n(C)c2C)C1=O,1.5%
10,CCOC(=O)c1cc(NC(=O)c2ccc(Cl)cc2)c(=O)n2c1oc1ccc(Cl)cc12,14%
11,CC1(c2nnc(-c3ccccc3)o2)CC(c2cccc(Cl)c2)=NO1 (stereo not drawn),12.5%
12,Cc1cccc(NC(=O)CSc2nnc(-c3ccco3)c(-c3ccco3)n2)c1C,-66.4%
13,Cn1c(SCC(=O)NCC2CCCO2)nc2c(c1=O)SCC2 (stereo not drawn),22.2%
14,C[C@H](NC(=O)[C@@H]1CSC2c3ccccc3C(=O)N21)C(=O)NC1CCCCC1 (stereo partly drawn),5.72%
15,COc1cc(CN2CCN(C3CCC3)CC2CCO)cc(OC)c1 (stereo not drawn),8.54%
16,O=C(CCNC(=O)Cn1ccc2ccccc2c1=O)NCCc1ccccc1Cl,-2.48%
17,COC(=O)c1cccc(NC(=S)N2CCOCC2)c1,33.2%
18,O=C(O)C(c1ccccc1)N1C(=O)/C(=C\c2ccc(-c3cccc(Cl)c3)o2)SC1=S (stereo not drawn),-7.12%
19,O=C(CCC(=O)OCCCC(F)(F)C(F)(F)F)NC1CCCCC1,5.76%
20,C=CCC1(/C=N/O)CCOC(C)(C)C1 (stereo not drawn),16.7%
21,Cc1ccccc1NC1C=CS(=O)(=O)C1 (stereo not drawn),12.6%
